The whole screen tested about 360,000 compounds, of which about 780 (0.22%) were called active. The inconclusive results got no clear call from the source; some entries with a clear call stand among them for comparison. Rule as the data show it: active = inhibition above about 8.5% (passing the limit was not always enough); inconclusive = no clear call, values can overlap the other calls.
Each compound was assayed on Mycobacterium tuberculosis FadD28 fatty-acid-AMP ligase (assay: inhibitors of FadD28 bisubstrate probe binding, primary screen, biochemical, fluorescence polarization, single point (AID 588549)). Details: at 12.5 µM, stronger effect = higher value.
In the case of `CCc1nnc(NS(=O)(=O)c2ccc(NC(=O)Nc3ccc(OC)cc3)cc2)s1`, the inhibition is reported as inconclusive: 8.31%.
For `Cc1nc(N)sc1C(=O)N/N=C/c1c[nH]c2ccccc12`, the inhibition was active: 9.94%.
In the case of `COc1ccc(/C=N/N(Cc2ccccc2)c2ccccc2)cc1O`, the inhibition is reported as active: 11.6%.
For `Cc1nn(-c2cccc(C(F)(F)F)c2)c(Cl)c1/C=N/Nc1cccc(C(=O)O)c1`, the inhibition was inconclusive: 8.06%.
`CCOC(=O)C(O)(C1C(=O)CC(C)(C)CC1=O)C(F)(F)F` (centres undefined) was tested, and the inhibition was inconclusive: 7.12%.
`CCN(CC)S(=O)(=O)c1cccc(C(=O)OCC(=O)c2ccc3c(c2)OCCO3)c1` was tested, and the inhibition was inconclusive: 6.33%.
In the case of `O=C(NC1CCCCC1)c1csnn1`, the inhibition is reported as inactive: 0.322%.
In the case of `O=C(NNC(=O)C1CC1)Nc1ccc(Cl)cc1`, the inhibition is reported as inconclusive: 2.1%.
For `CC1(C)Cc2ccccc2C(=NCCCC(=O)O)N1`, the inhibition was inconclusive: 6.74%.
With `Cc1ccc(C2CC(=O)N3CN(Cc4ccco4)CSC3=C2C#N)cc1` (centres undefined) the inhibition was inconclusive: 7.39%.
In the case of `Cc1ccc(NC(=O)CN2C(=O)N/C(=C/c3cc(C)n(-c4ccc(C(=O)O)cc4)c3C)C2=O)cc1`, the inhibition is reported as active: 52.5%.
With `Cc1ccc(Nc2ccc(N)cc2S(=O)(=O)O)cc1` the inhibition was active: 84.5%.
For `O=C(N/N=C\c1ccc(-c2ccccc2[N+](=O)[O-])o1)C1COc2ccccc2O1` (centres undefined), the inhibition was inactive: -3.94%.
In the case of `Cc1nonc1C(=O)N/N=C/c1ccc([N+](=O)[O-])o1`, the inhibition is reported as inconclusive: 3.02%.
`O=C(N/N=C/c1c[nH]c2ccc(Br)cc12)c1ccc2c(c1)OCO2` was tested, and the inhibition was inconclusive: 7.41%.
`CC1CC(C)CN(CCCNC(=O)Cn2cccc2C(=O)c2ccccc2)C1` (centres undefined) was tested, and the inhibition was inconclusive: 4.73%.
In the case of `Cc1ccc(-c2cc(-c3ccc(C)cc3)[n+](-c3ccc(C(=O)[O-])cc3)c(-c3ccc(C)cc3)c2)cc1`, the inhibition is reported as inactive: -3.3%.
With `COc1ccc(-c2nc3ccccc3c(=O)n2CCCN2CCOCC2)cc1` the inhibition was inconclusive: 8.72%.
With `O=C(/C=C/c1ccc([N+](=O)[O-])cc1)/C=C/c1ccco1` the inhibition was inconclusive: 7.31%.
`Cn1ncc2c(O/N=C(\N)c3ccc(C(C)(C)C)cc3)ncnc21` was tested, and the inhibition was inactive: -0.457%.
In the case of `NS(=O)(=O)c1cccc(NC(=S)NCc2ccc3c(c2)OCO3)c1`, the inhibition is reported as inactive: 1.16%.
In the case of `Cc1ccc(-n2c(O)c(/C=N/NC(=O)C3COc4ccccc4O3)c3ccccc3c2=O)cc1` (centres undefined), the inhibition is reported as inconclusive: 6.8%.
`CCc1nc2ccc(C(=O)NCCCn3ccnc3)cn2c1N(C)Cc1cc2ccccc2s1` was tested, and the inhibition was active: 9.16%.
For `O=C(CN1C(=O)/C(=C/c2ccco2)SC1=S)NC1CCS(=O)(=O)C1` (centres undefined), the inhibition was inconclusive: 8.21%.
